# T1: MMP-2 (Homo sapiens, UniProt P08253)
# T1 construct: purchased Anaspec
# T1 sequence (P08253 110-660): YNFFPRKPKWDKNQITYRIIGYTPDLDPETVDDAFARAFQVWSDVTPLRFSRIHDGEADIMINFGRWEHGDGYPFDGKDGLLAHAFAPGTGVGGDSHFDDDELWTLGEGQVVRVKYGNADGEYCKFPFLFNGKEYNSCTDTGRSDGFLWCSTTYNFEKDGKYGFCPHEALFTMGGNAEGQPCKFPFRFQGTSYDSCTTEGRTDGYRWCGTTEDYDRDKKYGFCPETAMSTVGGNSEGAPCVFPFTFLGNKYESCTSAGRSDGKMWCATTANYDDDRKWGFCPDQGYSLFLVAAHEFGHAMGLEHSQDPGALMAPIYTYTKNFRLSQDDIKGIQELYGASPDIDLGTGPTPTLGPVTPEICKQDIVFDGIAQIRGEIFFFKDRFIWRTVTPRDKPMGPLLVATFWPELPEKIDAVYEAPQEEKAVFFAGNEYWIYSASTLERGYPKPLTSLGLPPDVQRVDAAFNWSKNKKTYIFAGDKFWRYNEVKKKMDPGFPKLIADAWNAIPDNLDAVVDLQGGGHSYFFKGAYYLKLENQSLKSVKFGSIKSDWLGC
# B1: MMP-2 sensor: 1A5 variant backbone with human MMP-2 recognition site PLGMWSR, GST and 5×HQ tags (SEQ ID NOs:69 and 70) (protein)
# chain: [sequence of about 200 residues omitted]SGGGGGENLYFQAIAMPGSTGKIVPLHAVKVVDPTTGKILGPNEPGELYFKGPMIMKGYYNNEEATKAIIDNDGWLRSGDIAYYDNDGHFYIVDRLKSLIKYKGYQVAPAEIEGILLQHPYIVDAGVTGIPDEAAGELPAAGVVVQTGKYLNEQIVQDYVASQVSIAKWLRGGVKFLDEIPKGSTGKIDRKVLRQMLEKHTNGSPLGMWSRSLKNILYGPEPFYPLEDGTAGEQMFDALSRYAAIPGCIALTNAHTKENVLYEEFLKLSCRLAESFKKYGLKQNDTIAVCSENSLQFFLPVIASLYLGIIVAPVNDKYIERELIHSLGIVKPRIVFCSKNTFQKVLNVKSKLKSIETIIILDLNEDLGGYQCLNNFISQNSDSNLDVKKFKPYSFNRDDQVASIMFSSGTTGLPKGVMLTHKNIVARFSIAKDPTFGNAINPTSAILTVIPFHHGFGMMTTLGYFTCGFRVVLMHTFEEKLFLQSLQDYKVESTLLVPTLMAFLAKSALVEKYDLSHLKEIASGGAPLSKEIGEMVKKRFKLNFVRQGYGLTETTSAVLITPKGVSHQHQHQHQHQ
# Target: T1, MMP-2
# Assay: Purified MMP-2 sensor detecting activated MMP-2 (Bright-Glo luminescence)
# Type: biochemical
# Conditions: 37° C. for 1 hr
# Protocol: The MMP-2 sensor (SEQ ID NOs:69 and 70) used herein contains the 1A5 variant backbone and the human MMP-2 recognition site, PLGMWSR (SEQ ID NO:75). In addition, the MMP-2 sensor contains two purification tags: a GST tag on the N-terminus of the sensor that is separated from the sensor region by a TEV protease site (for removal of the GST tag from the purified MMP-2 sensor) and a 5×HQ (HQHQHQHQHQ; SEQ ID NO:79) tag on the C-terminus of the sensor.
# Activated MMP-2 (10 ng/μL; Anaspec) was added to the diluted MMP-2 sensor as described in FIG. 15. Total volume of the final reaction mixture was 50 μL. The mixture was incubated at 37° C. for 1 hr. Bright-Glo Assay Reagent (Promega) was prepared according to the manufacturer's instructions, and 50 μL added to the mixture. Luminescence was read immediately on a GloMax MultiPlus luminometer.
# FIG. 15 presents the fold increase over control (background from MMP-2 sensor).
molecule,measurement,value
B1,amount of MMP-2 protein detected (as little as),0.75 ng
